Experimental data from PubChem BioAssay AID1508623 (National Center for Advancing Translational Sciences (NCATS), 2021).
The campaign covered roughly 48,000 compounds. About 450 (0.94%) were called active. Not shown: some 19% with an inconclusive outcome. Calls follow the shape of the dose curve; as a rule, active = well fitted inhibition curve with a large enough effect; inconclusive = small, poorly fitted or top-dose-only effect; inactive = no such curve, though single readings can be large or run the other way. This is one part of the list.

Assay: Primary qHTS for Identification of Small Molecule Inhibitors of Huntingtin Promoter Activity; also: nearly all actives have a fitted effect of over 50% in size
Settings: HEK293 HTT promoter firefly luciferase reporter (activity 0% = vehicle and -100% = no light), 24 h; series mostly up to 57.5 µM; activity change, negative = inhibition: at the top concentration
Method in brief: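 Luminescence was read after Dual-Glo reagent and a 10 min room-temperature incubation. Values were normalized to vehicle (0% activity) and zero RLU (-100% activity). Reporter HEK293 cells had been exposed to compounds (up to 57.5 uM final) for 24 h.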

Activity change, negative = inhibition, inactive:
O=C(NCc1cccc(Br)c1)c1ccc(-n2cnc3cccnc32)cc1 -19.4%, Cc1ccc(Cl)cc1N1CCN(C(=O)c2cn(C)c3ccc(S(=O)(=O)N4CCC(C)CC4)cc3c2=O)CC1 48.5% [at 11.5 µM], O=C(NCC(c1ccc(Cl)cc1)N1CCCCC1)c1ccccc1 (stereo unspecified) -11%, CCCOc1ccc(C(=O)N(Cc2cccs2)C2CCS(=O)(=O)C2)cc1 (stereo unspecified) -25.6%, CCOc1cccc(C2c3[nH]c4ccccc4c3CCN2C(=O)CCc2ccccc2)c1 (stereo unspecified) -24.6%, CCOC(=O)c1nc(Nc2ccccc2C)c2ccccc2n1 -26.4%, O=C(NCc1noc2ccccc12)Nc1ccc(F)cc1F -5.68%, CCN(CC)S(=O)(=O)c1ccc2nc(NC(=O)c3ccc(Br)o3)sc2c1 15.1%, O=C(Nc1nc2ccc(Cl)cc2s1)c1ccc(S(=O)(=O)N2CCCC2)cc1 1.64%, COc1ccc(C)cc1NC(=O)CN1C(=O)COc2ccc(S(=O)(=O)N3CCCCCC3)cc21 -9.08%, CC1CC2C3CCC4=CC(=O)C=C[C@]4(C)[C@@]3(F)[C@@H](O)C[C@]2(C)[C@@]1(O)C(=O)CO (stereo partly specified) -6.94%, CC(C)c1ccc(NC(=O)CN2C(=O)c3cccc4cccc2c34)cc1 -1.01%, CCCN(CCC)S(=O)(=O)c1ccc(C(=O)O)cc1 1.59%, CCc1ccc(S(=O)(=O)c2cn(C)c3cc(OC)c(OC)cc3c2=O)cc1 -19.3%, CCOc1ccccc1CNC(=O)CSc1n[nH]c(-c2ccccc2Cl)n1 -19.4%, COc1ccc(CNC(=O)Cc2coc3ccc(C(C)C)cc23)cc1 -33.6%, O=C(CN1C(=O)COc2ccc(S(=O)(=O)N3CCCCC3)cc21)NCc1ccccc1Cl -13.7%, Cc1cc(Nc2cc(Cl)ccc2C)n2nc(Cc3ccccc3)nc2n1 -10.6%, Cc1ccc(C)c(CN2C(=O)c3ccccc3S(=O)(=O)c3ccc(C(=O)N4CCN(C)CC4)cc32)c1 -19%, COc1cccc(CNC(=O)CCc2nc(-c3ccc(C)cc3)no2)c1 -36%, Cc1cc(OCCn2cc(C(=O)c3ccco3)c3ccccc32)ccc1Cl -26.4%, COc1ccccc1Oc1nc2c(C)cccn2c(=O)c1/C=C(\C#N)c1nc2ccccc2[nH]1 -9.81% [at 11.5 µM], Cc1nn(CC(=O)NCc2cccc(F)c2)c(=O)c2c(C)n(-c3ccc(Cl)cc3)nc12 -20.4%, COc1ccc(-n2cc(C(=O)NCc3ccc(Cl)cc3)c3ccccc3c2=O)cc1 -2.29%, COc1ccc2nc(N(Cc3cccnc3)C(=O)c3ccco3)sc2c1 9.73%, Cc1ccc2c(c1)c1c(c(=O)n(-c3ccccc3)c(=O)n1CC(=O)NCCC1=CCCCC1)n2C -6.49%, CC1CN(C(=O)CCC(=O)NCc2cccs2)c2cc(Cl)ccc2O1 (stereo unspecified) -28.8%, Cc1ccc(CCNC(=O)c2cc3sccc3n2Cc2ccc(Cl)cc2)cc1 -21.5%, CC(C)(C)NCC(O)COc1ccc(NC(=O)NC2CCCCC2)cc1 (stereo unspecified) 10.5%, COc1ccccc1N1CCN(S(=O)(=O)c2cc(-c3cc(C)no3)ccc2C)CC1 -6.82%, O=C(c1ccc2c(c1)OCCO2)N(Cc1cccnc1)c1nc2ccc(Cl)cc2s1 13.8%, Cc1ccc(-c2nnn(CC(=O)N(CC(=O)NCCC(C)C)c3ccc(F)cc3)n2)cc1 -8.68%, Cc1ccc(C(C)C)c(OCC(=O)Nc2nc3c(s2)CCCC3)c1 -23.1%, CCN(CC)C(=O)c1cccc(C)c1 -1.68%, CCCCCOC(=O)c1ccc(Nc2nc(C(=O)OCC)nc3ccccc23)cc1 -10.7%, O=C(NCCc1ccc(F)cc1)C(=O)NCC(c1ccc2c(c1)OCO2)N1CCOCC1 (stereo unspecified) -0.625%, Cc1ccc2nc(-c3c[nH]c4ccccc34)c(Nc3ccccc3)n2c1 56.5%, Cc1coc2c1c(C)cc1oc(=O)c(CC(=O)NCc3ccc(Cl)cc3)c(C)c12 -0.252%, COc1cc(C2NC(=O)N(C)C3=C2C(=O)N(c2ccccc2)C3)ccc1O (stereo unspecified) 1.85%, CCC(C)NC(=O)c1sc2nc(C)c(C(=O)Nc3ccc(C)cc3C)c(-c3ccc(Br)cc3)c2c1N (stereo unspecified) -14.4%, Cc1ccc2[nH]c(=O)c3cc(C(=O)N4CCN(c5ccccc5F)CC4)sc3c2c1 -3.61%, O=C(CSc1nc(-c2ccccc2)cc(=O)[nH]1)Nc1ccccc1F -6.46%, COc1ccc(-c2cnc(NCc3ccc(C)cc3)n2C)cc1 -11.5%, CC1=C(C(=O)Nc2ccc(C)c(C)c2)C2(CCCCCC2)OC1=O -13%, COc1ccc(CCNC(=O)CSc2nc3ccccc3nc2Cc2ccc(C)cc2)cc1OC 1.43%, COc1ccccc1CNC(=O)c1nn(-c2ccc(C)cc2)c(=O)c2c1c1ccccc1n2C -1.1%, Cc1cccc(CSc2ncc(Cl)c(C(=O)Nc3sc4c(c3C#N)CCCC4)n2)c1 -4.37%, CCN(CC)c1nc2c(S(=O)(=O)c3ccc(C)cc3)nnn2c2ccsc12 -1.47%, COc1ccccc1NC(=O)CSc1oc(-c2cccs2)nc1S(=O)(=O)c1ccc(C)cc1 -25.2%, OC[C@H]1O[C@@H](O[C@H]2[C@@H](O)[C@@](O)(CO)O[C@@H]2CO)[C@H](O)[C@@H](O)[C@@H]1O -12.6%, O=C(Nc1nnc(S(=O)(=O)N2CCCC2)s1)c1ccccc1Cl -1.67%, CCn1ccc2cc(S(=O)(=O)N3CCC(C(=O)NCc4ccc(OC(C)C)cc4)CC3)ccc21 0%, COc1ccc(-c2nc3ccc(C(=O)NCc4ccccc4)cc3nc2-c2ccc(OC)cc2)cc1 2.19%, Cc1ccccc1NC(=O)c1ccccc1NC(=O)c1ccccc1F 7.88%, CCCSc1nnc2c(n1)OC(CC)N(C(C)=O)c1ccccc1-2 (stereo unspecified) -15.7% [at 11.5 µM], O=C(CN1C(=O)COc2ccc(S(=O)(=O)N3CCCCC3)cc21)NCCc1ccc(Cl)cc1 2.36%, COC(=O)COc1ccc(Oc2nc(NC(C)(C)C)nc(N3CCOCC3)n2)nn1 -5.11%, CCOc1ccccc1CNC(=O)Cn1nc(C)c2nn(-c3ccc(Cl)cc3)c(C)c2c1=O -25.4%, COc1ccc(N2CCN(S(=O)(=O)c3c(C)nc4sc(C)cn4c3=O)CC2)cc1 3.62%, CC1=C(c2ccc(C)c(C)c2)S(=O)(=O)N(Cc2ccc(C(=O)NCc3ccc(C)cc3)cc2)C1=O -4.46%, COc1ccc(Cc2nc3c4cnn(-c5ccccc5Br)c4ncn3n2)cc1 -0.88%
